In PubChem BioAssay AID504832 (National Center for Advancing Translational Sciences (NCATS), 2011):
Out of some 310,000 compounds screened, about 18,000 (5.8%) were called active. The shares of active, inactive and inconclusive entries below differ from those in the screen. The call rests on the fitted dose curve; in most records, active means well fitted inhibition curve with a large enough effect; inconclusive means small, poorly fitted or top-dose-only effect, or another doubt; inactive means no such curve, though single readings can be large or run the other way. Potencies of inconclusive entries are left out as doubtful fits.

assay: Primary qHTS for delayed death inhibitors of the malarial parasite plastid, 48 hour incubation; details: P. falciparum luciferase growth in erythrocytes; series mostly up to 28.7 µM; activity change, negative = inhibition: at the top concentration
Method in brief: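 Luciferase-expressing parasites in RBCs, 2% Hct / 0.1% parasitemia final; RPMI 1640 + 0.5% Albumax; 37 C, 5% CO2, one generation; luminescence read-out, lower signal = inhibition.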
On the % scale 0 is the no-effect control and ±100 the full control effect; potency means the concentration at half of the fitted maximal effect; tags describe the fitted curve by direction and shape.

**Q.** Which “activity change, negative = inhibition” value does the source give for `Cc1ccc(NC(=O)C2CCN(C(=O)NC3CCCCC3)CC2)cc1Cl` here?
**A.** inactive: 4.87%

**Q.** With `COCCNC(=S)N(Cc1cccnc1)Cc1ccc(OC)c(OC)c1` as the molecule, how does the “activity change, negative = inhibition” value read?
**A.** inactive: -3.14%

**Q.** With `CCN(CC)CCNC(=O)c1ccc(NC(=O)c2cccc(S(=O)(=O)N3CCc4ccccc43)c2)cc1` as the molecule, how does the Potency read?
**A.** active: 0.738 µM

**Q.** For `CCOC(=O)C1=C(O)/C(=C/c2cc(OC)c(OC)c(OC)c2)N=C1C`, which Potency is on record?
**A.** inconclusive [inhibitor, full curve, poor fit]

**Q.** Which Potency does the source give for `Cc1coc2c(C)c3oc(=O)c(CCC(=O)NCCCn4ccnc4)c(C)c3cc12` here?
**A.** active: 10.4 µM

**Q.** Which Potency does the source give for `CSc1nnc(C(C)(C)C)c(=O)n1/N=C/c1ccccc1` here?
**A.** inconclusive [inhibitor, partial curve, poor fit]

**Q.** Which “activity change, negative = inhibition” value does the source give for `CCc1ccc(NC(=O)CSc2nc3ncc(Br)cc3[nH]2)cc1` here?
**A.** inactive: 22.4%

**Q.** For `CCOC(=O)C1=C(C)NC(=S)NC1c1ccc(-c2ccc(Cl)cc2)o1` (stereo not drawn), which Potency is on record?
**A.** inconclusive [inhibitor, partial curve]

**Q.** For `CCCCC(CC)Cn1c2nc3ccccc3nc2c2c(=N)oc(C)nc21` (stereo not drawn), which Potency is on record?
**A.** inconclusive [inhibitor, single point]

**Q.** For `C=CCNc1nc(C(=O)OCC(=O)NCc2ccccc2OC)cs1`, which Potency is on record?
**A.** inconclusive [inhibitor, single point]

**Q.** For `CC1=NN(c2cccc(C(=O)O)c2)C(=O)/C1=C\C=C\c1ccco1`, which “activity change, negative = inhibition” value is on record?
**A.** inactive: 16.9%

**Q.** For `COc1cccc(-c2ocnc2C(=O)Nc2ccc(N3CCOCC3)cc2N2CCOCC2)c1`, which Potency is on record?
**A.** inconclusive [inhibitor, partial curve]

**Q.** With `COc1ccc(C(CNC(=O)c2oc3ccccc3c2C)N2CCCC2)cc1` (stereo not drawn) as the molecule, how does the Potency read?
**A.** active: 9.28 µM

**Q.** Which Potency does the source give for `CCN(CC)c1ccc(S(=O)(=O)N2CCOCC2)cc1NC(=O)CN1CCN(Cc2ccccc2)CC1` here?
**A.** inconclusive [inhibitor, partial curve]

**Q.** Which “activity change, negative = inhibition” value does the source give for `CC1CC(C)CN(CCCNC(=O)C2CCCN(S(=O)(=O)N3CC(C)CC(C)C3)C2)C1` (stereo not drawn) here?
**A.** inactive: 0.712%

**Q.** For `O=C(NCc1cccnc1)c1ccc([N+](=O)[O-])cc1`, which Potency is on record?
**A.** inconclusive [inhibitor, partial curve, poor fit]

**Q.** For `COC(=O)Cc1[nH]nc2c1C1(C(=O)N(Cc3ccccc3)c3ccccc31)C(C#N)=C(N)O2` (stereo not drawn), which “activity change, negative = inhibition” value is on record?
**A.** inactive: -7.64%

**Q.** With `CCOc1cc(C(=O)OC(C)C(=O)Nc2ccc(NC(C)=O)cc2)ccc1OCC(=O)N1CCCCC1` (stereo not drawn) as the molecule, how does the “activity change, negative = inhibition” value read?
**A.** inactive: -16.2%

**Q.** For `CC(C)=C(NC(=O)c1ccccc1)C(=O)Nc1ccc(C(=O)O)cc1`, which “activity change, negative = inhibition” value is on record?
**A.** inactive: 10.7%

**Q.** For `O=c1cc2c(nn1Cc1cccc([N+](=O)[O-])c1)-c1ccccc1CC2`, which “activity change, negative = inhibition” value is on record?
**A.** inactive: -13.7%

**Q.** With `COc1ccccc1-c1nnc2sc(COc3ccc(F)cc3)nn12` as the molecule, how does the Potency read?
**A.** active: 1.47 µM

**Q.** For `CN(Cc1cccs1)S(=O)(=O)c1ccc(Cl)cc1F`, which Potency is on record?
**A.** inconclusive [inhibitor, single point]

**Q.** For `COc1cc(/C=C/C(=O)Nc2nnc(CC(C)C)s2)cc(OC)c1OC`, which “activity change, negative = inhibition” value is on record?
**A.** inactive: -3.02%

**Q.** Which Potency does the source give for `Cc1ccc(C)c(OCCC(=O)N(C)CC(=O)Nc2c(C)cccc2C)c1` here?
**A.** inconclusive [inhibitor, partial curve, poor fit]

**Q.** Which “activity change, negative = inhibition” value does the source give for `CCCCNC(=S)NCc1ccc2[nH]c3c(c2c1)CCCC3` here?
**A.** inactive: 15.7%

**Q.** For `CC(=O)NCCc1nc2ccccc2n1Cc1cc(C)ccc1C`, which Potency is on record?
**A.** inconclusive [inhibitor, full curve]

**Q.** Which “activity change, negative = inhibition” value does the source give for `CC(C)CNS(=O)(=O)c1ccc(CCC(=O)O)cc1` here?
**A.** inactive: 12.2%

**Q.** For `CCN(CC)S(=O)(=O)c1ccc(N2CCCC2)c(NC(=O)C2CSC3(C)CCC(=O)N23)c1` (stereo not drawn), which Potency is on record?
**A.** inconclusive [inhibitor, partial curve, poor fit]

**Q.** For `C#CCSc1n[nH]c(=O)n1-c1cccc(C(F)(F)F)c1`, which “activity change, negative = inhibition” value is on record?
**A.** inactive: -6.19%

**Q.** With `COc1ccccc1N1CCN(C(=O)C(=O)c2c(C)n(C)c3ccccc23)CC1` as the molecule, how does the Potency read?
**A.** inconclusive [inhibitor, partial curve]

**Q.** For `Cc1cc(C(=O)N2CCC(Cc3ccccc3)CC2)c(C)o1`, which Potency is on record?
**A.** inconclusive [inhibitor, single point]

**Q.** With `CC1CCN(CC(O)COC2CCC(C(C)(C)C)CC2)CC1` (stereo not drawn) as the molecule, how does the Potency read?
**A.** inconclusive [inhibitor, single point]

**Q.** Which “activity change, negative = inhibition” value does the source give for `CN(Cc1c(F)cccc1Cl)C(=O)C1CC(=O)N(CCc2ccccc2)C1` (stereo not drawn) here?
**A.** inactive: -13.4%

**Q.** Which Potency does the source give for `CSCCC(NC(=O)c1cc([N+](=O)[O-])cc([N+](=O)[O-])c1)c1nc2ccccc2[nH]1` (stereo not drawn) here?
**A.** inconclusive [inhibitor, single point]

**Q.** With `CC(C)(C)S(=O)(=O)Cc1nc(-c2ccc(Cl)c(Cl)c2)cs1` as the molecule, how does the Potency read?
**A.** inconclusive [inhibitor, single point]

**Q.** For `CCS(=O)(=O)Nc1ccc(-c2nc3cccnc3s2)cc1`, which “activity change, negative = inhibition” value is on record?
**A.** inactive: -7.49%

**Q.** For `Cc1ccc(NC(=O)CSCC(=O)N2c3ccccc3CCc3ccccc32)cc1`, which Potency is on record?
**A.** inconclusive [inhibitor, single point]

**Q.** Which “activity change, negative = inhibition” value does the source give for `CCc1cc(-c2[nH]ncc2-c2nc3ccccc3n2C)c(O)cc1O` here?
**A.** inactive: -18.2%

**Q.** With `CCCn1c(Nc2nc3ccccc3n2C)nc2ccccc21` as the molecule, how does the Potency read?
**A.** active: 7.38 µM

**Q.** With `CC(=O)c1ccc(-n2c(CCC(=O)O)ccc2-c2ccc(Cl)cc2)cc1` as the molecule, how does the “activity change, negative = inhibition” value read?
**A.** inactive: 18.6%

**Q.** Which Potency does the source give for `CCOC(=O)[C@H]1[C@H]2COc3ccc(Br)cc3[C@@H]2N2C(=O)c3cc(OC)c(OC)cc3NC(=O)[C@@]12C` here?
**A.** active: 9.28 µM

**Q.** With `COc1ccc(Cl)cc1NC(=O)CN(C)CC(=O)Nc1ccc(C)cc1Br` as the molecule, how does the “activity change, negative = inhibition” value read?
**A.** inactive: -21.3%

**Q.** For `CC(C)(C)C(=O)CSc1ncnc2c1cnn2Cc1ccccc1`, which Potency is on record?
**A.** inconclusive [inhibitor, single point]

**Q.** With `CCOc1cc(C(=O)O/N=C(\N)c2ccccn2)cc(OCC)c1OCC` as the molecule, how does the Potency read?
**A.** inconclusive [inhibitor, single point]

**Q.** For `Cc1cc(C)c(NC(=O)c2ccc3c(c2)NC(=O)C(C)S3)c(C)c1` (stereo not drawn), which Potency is on record?
**A.** inconclusive [inhibitor, single point]

**Q.** Which Potency does the source give for `CC1=C/C(=N\Nc2ccccc2[N+](=O)[O-])CC(C)(C)C1` here?
**A.** inconclusive [inhibitor, partial curve, poor fit]

**Q.** With `Cc1cc(/C=C(\C#N)C(=O)NC2CC2)c(C)[nH]1` as the molecule, how does the “activity change, negative = inhibition” value read?
**A.** inactive: 165%

**Q.** Which Potency does the source give for `O=S(=O)(c1ccc(S(=O)(=O)N2CCCN(Cc3ccccc3)C2)cc1)N1CCCCCC1` here?
**A.** inconclusive [inhibitor, single point]
